# Test results as given in PubChem BioAssay AID651820 (National Center for Advancing Translational Sciences (NCATS), 2012).
# Where “and” joins values, the source holds several entries; their conditions need not be identical. Equal entries are not always repeated. About 12,000 (3.5%) of roughly 340,000 compounds were called active. Inconclusive results, whose numbers are uncertain, are shown with a selection of clear calls. Calls follow the shape of the dose curve; as a rule, active = well fitted inhibition curve with a large enough effect; inconclusive = small, poorly fitted or top-dose-only effect, or another doubt; inactive = no such curve, though single readings can be large or run the other way. Where the call is inconclusive, the potency comes from a doubtful curve fit.
# Assay: qHTS Assay for Inhibitors of Hepatitis C Virus (HCV)
# Settings: Huh7.5.1 HCVcc-Cre (HCVcc is cell-culture hepatitis C virus) infection, luciferase reporter, 44 h; activity change, negative = inhibition: at 41.8 µM (top of the series) unless noted
# Summary of the method: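 Antiviral activity was scored by luciferase reporter output from cells infected with HCVcc-Cre (~0.5 moi) in presence of compound, 44 h infection period, cells seeded 1,000/well 4 h prior.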
# % is scaled to controls: 0 for no effect and ±100 for the full control effect; potency is read from the fitted curve at half-maximal effect; tags tell the direction and shape of the fitted curve.
SMILES,Potency,"activity change, negative = inhibition"
COC(=O)c1c(-c2ccc(OC)cc2)sc2cc3c(cc12)OCO3,active: 11.2 µM,
COC(=O)c1sc(-c2ccccc2)cc1NC(C)=O,active: 8.91 µM,
O=C(Nc1ccc([N+](=O)[O-])cc1)N1CCc2ccccc2C1,active: 10 µM,
COc1ccc(N2C(=O)CSC23C(=O)N2c4c(cccc43)C(C)=CC2(C)C)cc1 (centres undefined),"inconclusive: 31.6 µM [inhibitor, single point]",
CCCN(Cc1cc2cc(C)ccc2[nH]c1=O)C(=O)c1cccc([N+](=O)[O-])c1,"inconclusive: 10 µM [inhibitor, partial curve]",
COc1ccc2[nH]c3c(c2c1)CCN1C(=O)N([C@@H](C)C(=O)NCCc2ccc(F)cc2)C(=O)[C@]31C,"inconclusive: 15.8 µM [inhibitor, partial curve]",
Cc1c(C(=O)N2CCN(C(c3ccccc3)c3ccccc3)CC2)oc2ccccc12,"inconclusive: 14.1 µM [inhibitor, partial curve]",
COC(=O)c1ccc(CSc2nnc(CNC(=O)COc3ccc(Cl)cc3)o2)o1,"inconclusive: 31.6 µM [inhibitor, single point]",
COc1ccc(OC)c(C(=O)CSc2nccc(-c3ccc(Br)cc3)n2)c1,"inconclusive: 3.55 µM [inhibitor, full curve, poor fit]",
O=C(Nc1ccc(N2CCCCC2)cc1)c1ccc2ccccc2n1,active: 10 µM,
CCN(CC)c1ccc(/C=N/n2c(-c3ccccc3Br)n[nH]c2=S)cc1,"inconclusive: 11.2 µM [inhibitor, partial curve]",
O=C(CNCc1ccccc1)Nc1cccc(Cl)c1Cl,,inactive: 6.94%
CCN(CC(=O)Nc1ccc2c(c1)OCCO2)C(=O)c1cccc(OCC(C)C)c1,,inactive: -14.6%
CCn1c(SCC(=O)N/N=C/c2ccc(C)o2)nnc1-c1ccc(C(C)(C)C)cc1,"inconclusive: 12.6 µM [inhibitor, partial curve]",
O=C(N/N=C/c1ccccc1C(F)(F)F)c1ccc(O)cc1,,inactive: 5.4%
CCCCOc1ccc(C2C(C(=O)c3ccc(C)o3)=C(O)C(=O)N2CC2CCCO2)cc1 (centres undefined),"inconclusive: 31.6 µM [inhibitor, single point]",
CCC1(C(=O)c2ccccc2)C(c2ccc([N+](=O)[O-])cc2)C1(C(=O)OC)C(=O)OC (centres undefined),"inconclusive: 11.2 µM [inhibitor, partial curve]",
Cc1cccc(OCCNC(=O)c2ccc(Cl)c(S(=O)(=O)NCc3cccnc3)c2)c1,"inconclusive: 0.562 µM [inhibitor, full curve]",
CCC(CO)Oc1cc(NCc2ccc(Cl)cc2)c2ncn(C(C)C)c2c1 (centres undefined),active: 2.24 µM,
COc1ccc(-c2cc3nc(-c4ccccc4)cc(N4CCC(O)CC4)n3n2)cc1,"inconclusive: 22.4 µM [inhibitor, single point]",
COc1ccccc1NC(=O)Cc1csc(NC(=S)Nc2ccccc2)n1,active: 12.6 µM,
COc1ccccc1/C=C1\SC(=S)N(CCC(=O)Nc2ccc(C(=O)O)c(O)c2)C1=O,,inactive: 15.3%
O=C(NC1CCc2ccccc21)C12CN(Cc3ccccc3)CC1C(c1cccc([N+](=O)[O-])c1)=NO2 (centres undefined),"inconclusive: 14.1 µM [inhibitor, partial curve, poor fit]",

SMILES,Potency,"activity change, negative = inhibition"
CNC[C@H](CC1CCCCC1)NC[C@H](CO)NCCc1cccc(C(F)(F)F)c1,"inconclusive: 31.6 µM [inhibitor, single point]",
Cc1cc(Cl)ccc1OC(C)C(=O)Nc1ccccc1N1CCOCC1 (centres undefined),active: 10 µM,
O=C(NCCC1=CCCCC1)c1cccc2c1C(=O)N(C1CCCCC1)C2,"inconclusive: 11.2 µM [inhibitor, partial curve]",
Fc1ccc2[nH]c3c(N4CCSCC4)ncnc3c2c1,active: 6.31 µM,
COc1ccc(C(CNC(=O)c2oc3ccc(Br)cc3c2C)N2CCCCC2)cc1 (centres undefined),active: 12.6 µM,
OCCC1CN(Cc2cn[nH]c2C2CCCCC2)CCN1Cc1ccccc1 (centres undefined),,inactive: -3.43%
Cc1ccc2c(CN(C)Cc3cccc(Cl)c3)cc(=O)oc2c1C,"inconclusive: 31.6 µM [inhibitor, single point]",
O=C1N/C(=N\N=C\c2cccnc2)SC1Cc1ccc(SC(F)F)cc1 (centres undefined),"inconclusive: 22.4 µM [inhibitor, single point]",
CCCOc1ccc(NC(=O)Cc2ccc(S(=O)(=O)N3CCOCC3)s2)cc1OCCC,"inconclusive: 5.01 µM [inhibitor, single point]",
Cc1ccc(C)c2nc(SCC(=O)NCc3cccs3)c(C#N)cc12,"inconclusive: 3.98 µM [inhibitor, single point]",
COc1cc(C(=O)Oc2cccc(/C=N/NC(=O)c3cc(C)[nH]n3)c2)cc(OC)c1OC,"inconclusive: 25.1 µM [inhibitor, single point]",
CCOC(=O)c1c(C)[nH]c(C(=O)COC(=O)C2CC2C)c1C (centres undefined),"inconclusive: 4.47 µM [inhibitor, full curve]",
CC(C)(CC(=O)O)CC(=O)Nc1ccc2c(c1)ncn2CCc1ccccc1,,inactive: 18.3%
CC(C)c1ccc(/C=C2\SC(N3CCCC3)=NC2=O)cc1,,inactive: -22.2%
O=C(O)CCn1cc(/C=C2/NC(=S)N(c3ccccc3)C2=O)c(-c2ccccc2)n1,,inactive: 7.07%
CCOC(=O)c1c(-c2ccccc2)oc2ccc(OCC(=O)NN)cc12,"inconclusive: 11.2 µM [inhibitor, partial curve]",
Cc1ccc(N/C=C2\CCCCC2=O)nc1,"inconclusive: 5.62 µM [inhibitor, single point]",
CCOC(=O)c1c(C)[nH]c(C(=O)OCC(O)=C(C#N)c2nc3ccccc3[nH]2)c1C,,inactive: -14.2%
Cc1ccc(S(=O)(=O)c2nnn3c2nc(NCCCN2CCCC2=O)c2ccccc23)cc1C,"inconclusive: 17.8 µM [inhibitor, partial curve, poor fit]",
CC(C)Cn1c(N)c(C(=O)COC(=O)c2ccc3c(c2)OCCO3)c(=O)n(C)c1=O,active: 7.08 µM,
O=C(O)c1cccc(CSc2ncccn2)c1,"inconclusive: 3.16 µM [inhibitor, single point]",
Brc1cc2c(cc1Br)OCCOCCOCCOCCO2,,inactive: -9.16%
CS(=O)(=O)c1ccc(Cl)c(NC(=O)c2cccc(-n3cnnn3)c2)c1,,inactive: 2.94%

SMILES,Potency,"activity change, negative = inhibition"
COCCn1c(C)cc(C(=O)COC(=O)c2ccc(Br)o2)c1C,"inconclusive: 5.62 µM [inhibitor, single point]",
O=C(Nc1ncc(Cc2cccc(Cl)c2Cl)s1)c1ccc([N+](=O)[O-])cc1,"inconclusive: 8.91 µM [inhibitor, single point]",
O=c1c2ccccc2nc2n1C(CSCc1ccccc1)CS2 (centres undefined),active: 14.1 µM,
CC(C)c1ccc(C(O)c2cnc(C(C)C)n2C)cc1 (centres undefined),"inconclusive: 11.2 µM [inhibitor, partial curve]",
COc1ccc(S(=O)(=O)N2CCOC2CNC(=O)C(=O)NCCc2ccccc2OC)cc1 (centres undefined),"inconclusive: 31.6 µM [inhibitor, single point]",
CCN(CC(=O)Nc1c(F)cccc1F)C(=O)/C=C/c1ccc(S(=O)(=O)N2CCCCCC2)cc1,"inconclusive: 31.6 µM [inhibitor, single point]",
COC(=O)c1cc(NC(=O)CN(c2ccc(OC)cc2)S(=O)(=O)c2ccc(F)cc2)ccc1Cl,"inconclusive: 10 µM [inhibitor, single point] and inconclusive: 31.6 µM [inhibitor, single point]",
CCN(CC)S(=O)(=O)c1ccc(C)c(NC(=O)CSc2ncc(C(F)(F)F)cc2Cl)c1,"inconclusive: 15.8 µM [inhibitor, single point]",
CCN(CC)S(=O)(=O)c1ccc(N2CCOCC2)c(NC(=O)c2ccccc2)c1,,inactive: -17.3%
Cc1cccc(NC(=O)CN2CCN(C(=O)c3cnn(Cc4ccccc4)c3)CC2)c1C,,inactive: -2.26%
NC(=O)c1ccccc1NC(=O)CS(=O)(=O)Cc1ccccc1,,inactive: 6.27%
CCN(Cc1nc2cc(Cl)ccc2c(=O)[nH]1)C(=O)c1cccc(OCc2c(C)noc2C)c1,,inactive: -6.44%
CC1(C)NC(=O)N(CCCCOc2ccc(Cl)cc2)C1=O,,inactive: 10%
O=C1c2oc3ccc(Cl)cc3c(=O)c2C(c2ccccn2)N1CCCN1CCOCC1 (centres undefined),"inconclusive: 31.6 µM [inhibitor, single point]",
Cc1ccc(NC(=O)c2c(-c3ccccc3Cl)noc2C)nc1,,inactive: -5.01%
O=C(NC1CCCCC1)N1CCN(c2ccc([N+](=O)[O-])cc2)CC1,"inconclusive: 10 µM [inhibitor, partial curve]",
CCCN(CCC)c1nc(-c2ccccn2)nc2ccccc12,"inconclusive: 3.16 µM [inhibitor, full curve]",
CC(C)Cn1c(N)c(C(=O)COC(=O)c2ccc([N+](=O)[O-])o2)c(=O)n(C)c1=O,"inconclusive: 3.55 µM [inhibitor, full curve]",
Cc1cc(-c2nnc(-c3ccccc3)c(-c3ccccc3)n2)c(C)o1,"inconclusive: 14.1 µM [inhibitor, partial curve]",
CCCCc1ccc(S(=O)(=O)NCCc2ccncc2)cc1,active: 11.2 µM,
O=[N+]([O-])c1cccc(-c2c(-c3ccccc3)ncc3cc(F)ccc23)c1,"inconclusive: 10 µM [inhibitor, partial curve]",
CC1CC(C)CN(C(=O)c2cccc(S(=O)(=O)N3c4ccccc4CC3C)c2)C1 (centres undefined),"inconclusive: 14.1 µM [inhibitor, single point]",
Cc1ccc(C(=O)NNC(=O)CCC(=O)Nc2cc(C)on2)cc1,,inactive: 28.7%
